From the supplement of paper PMC12217912
Some of the results follow. Sequences were assembled here from the parent chain. Inactive controls read about 0.05.

B1: TEV protease; numbered along this chain (parent)
chain: MGESLFKGPRDYNPISSSICHLTNESDGHTTSLYGIGFGPFIITNKHLFRRNNGTLVVQSLHGVFKVKDTTTLQQHLVDGRDMIIIRMPKDFPPFPQKLKFREPQREERICLVTTNFQTKSMSSMVSDTSCTFPSGDGIFWKHWIQTKDGQCGSPLVSTRDGFIVGIHSASNFTNTNNYFTSVPKNFMELLTNQEAQQWVSGWRLNADSVLWGGHKVFMVKPEEPFQPVKEATQL

Variants of: B1
Assay: raw area under fraction-flipped curve 0-4 h after induction (AUC4h, not background-subtracted), DNA-recorder readout of cleavage of the substrate (dimensionless); higher = more cleavage of the substrate by the protease variant
Conditions: temperature: 34 °C; time window: 0-4 h after rhamnose induction
Procedure: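 In vivo DNA recorder in E. coli TOP10(DE3) ΔrhaA at 34 °C. Each TEVp single-site mutant (parent TEVp 0) is paired with a single-site variant of the 7-mer TEVs (canonical ENLYFQ|S). The substrate sits between flexible linkers in a Bxb1-sfGFP-TEVs-SsrA fusion, so cleavage stabilises Bxb1 and speeds flipping of a recombination array, read by NGS. The value is the raw area under the fraction-flipped curve over 0-4 h after rhamnose induction (AUC4h), with ≥20 reads per time point. It is not background-subtracted; inactive controls average about 0.047.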
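Note: Bxb1 expression induced with 0.2% (w/v) L-rhamnose at OD600 near 0.5, cultures sampled hourly, flipped fraction per protease–substrate barcode pair counted by paired-end Illumina sequencing.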

Variant | area with substrate ENLYFAS | area with substrate ENLYFCS | area with substrate ENLYFDS | area with substrate ENLYFES | area with substrate ENLYFFS | area with substrate ENLYFGS | area with substrate ENLYFHS | area with substrate ENLYFIS | area with substrate ENLYFKS | area with substrate ENLYFMS | area with substrate ENLYFNS | area with substrate ENLYFPS | area with substrate ENLYFTS | area with substrate ENLYFVS | area with substrate ENLYFWS | area with substrate ENLYFYS | area with substrate ENLYFSS | area with substrate ENLYFLS | area with substrate ENLYFRS
H143V | 0.0531 | 0.0544 | 0.0577 | 0.0565 | 0.0639 | 0.0594 | 0.0561 | 0.0576 | 0.0505 | 0.0635 | 0.0642 | 0.055 | 0.0506 | 0.0697 | 0.051 | 0.0682 |  |  | 
H143E | 0.0568 | 0.0578 | 0.0628 | 0.0532 | 0.0634 | 0.0491 | 0.0443 | 0.0447 | 0.0762 | 0.0636 | 0.056 | 0.0525 | 0.0573 | 0.0626 | 0.0323 | 0.0482 | 0.0581 |  | 
E107D | 0.061 | 0.066 |  | 0.0664 | 0.0754 |  | 0.061 | 0.0677 |  |  | 0.0646 | 0.0567 | 0.0596 | 0.0438 |  |  |  | 0.0632 | 
E107V | 0.0529 | 0.0235 |  |  | 0.0804 |  | 0.0667 | 0.068 | 0.0804 |  | 0.0674 | 0.0595 | 0.0607 |  | 0.0588 | 0.0595 | 0.0618 |  | 
V126K | 0.0599 |  | 0.076 | 0.0708 | 0.0669 |  | 0.0622 | 0.0598 | 0.0679 | 0.0563 | 0.0592 | 0.06 |  |  | 0.0673 |  | 0.0406 | 0.0806 | 
F117Y | 0.0716 | 0.0661 |  |  | 0.0587 |  | 0.0691 |  | 0.0576 |  | 0.058 | 0.06 | 0.0661 | 0.0584 |  |  | 0.0583 |  | 
P134F | 0.0352 | 0.0402 |  | 0.0504 | 0.0708 |  | 0.0597 | 0.0539 | 0.081 | 0.0529 | 0.0629 |  |  |  | 0.0692 |  |  |  | 
T129R | 0.0704 | 0.0477 |  |  |  | 0.0299 | 0.0499 |  |  | 0.0617 | 0.0136 |  |  | 0.0688 |  |  | 0.0497 |  | 0.0661
T129A | 0.0678 |  |  | 0.0632 | 0.0568 |  | 0.0571 | 0.0596 |  |  |  | 0.0549 | 0.0594 |  | 0.0471 | 0.072 |  |  | 0.055
Q146G | 0.0605 | 0.0462 | 0.0683 |  | 0.0599 | 0.0691 |  | 0.0556 | 0.0759 | 0.0628 | 0.0596 | 0.0605 |  | 0.056 |  | 0.0642 | 0.0606 |  | 0.0684
Q146Y | 0.0484 | 0.0605 |  | 0.0563 | 0.0749 |  |  | 0.0604 | 0.057 | 0.0723 | 0.0673 | 0.0578 | 0.0465 | 0 |  |  |  |  | 0.0676
Q146E | 0.0699 | 0.063 |  | 0.082 |  |  | 0.0664 | 0.0496 |  | 0.069 | 0.0749 | 0.0645 | 0.0717 | 0.0725 | 0.0467 |  | 0.0504 |  | 
T119K | 0.0219 | 0.0634 |  | 0.0887 | 0.0354 |  |  | 0.053 |  |  | 0.0473 | 0.062 |  |  |  |  | 0.0607 | 0.0633 | 0.0662
R102V | 0.0575 | 0.0405 | 0.0398 | 0.063 |  | 0.0525 | 0.0311 | 0.047 |  | 0.0445 |  | 0.0521 | 0.026 | 0.0458 |  | 0.0763 | 0.0286 | 0.0443 | 0.0602
R102S | 0.0531 | 0.0434 | 0.0499 |  | 0.0644 |  | 0.0485 | 0.0566 | 0.073 | 0.0487 | 0.044 | 0.0577 | 0.0476 | 0.0419 |  | 0.0482 | 0.0454 | 0.0677 | 0.048
R102F | 0.0356 | 0.0323 |  | 0.0343 |  |  | 0.0343 | 0.0367 |  |  | 0.0453 | 0.0645 | 0.0405 |  |  |  | 0.0308 | 0.0498 | 
R102L | 0.0507 | 0.0526 | 0.0503 | 0.0389 |  | 0.0577 |  | 0.0466 |  | 0.0642 | 0.0449 | 0.0483 | 0.0474 | 0.0555 | 0.0472 | 0.0429 | 0.0544 | 0.0683 | 0.0526
S127R | 0.0342 | 0.0534 |  | 0.0746 |  |  | 0.0537 | 0.0595 | 0.0417 |  | 0.0762 |  | 0.0517 |  | 0.0552 | 0.0606 | 0.0512 | 0.0609 | 
S127N | 0.0548 | 0.0648 | 0.0525 | 0.0615 | 0.0732 | 0.059 |  | 0.0477 | 0.0527 | 0.0619 | 0.0607 | 0.0576 | 0.0577 |  |  | 0.0639 | 0.0647 |  | 0.0571
E108W | 0.0606 | 0.055 | 0.0671 | 0.0914 | 0.0557 | 0.05 | 0.0825 | 0.0757 | 0.0584 | 0.0661 | 0.061 | 0.0523 | 0.0544 | 0.0513 | 0.0517 | 0.0569 | 0.0523 | 0.0781 | 0.0592
E108R | 0.06 | 0.049 |  | 0.0403 | 0.0613 |  | 0.021 | 0.0483 | 0.0566 | 0.0434 | 0.0594 | 0.0513 | 0.0484 | 0.0582 | 0.0452 |  |  |  | 0.0563
E108K | 0.0356 | 0.0347 |  |  | 0.0704 |  |  | 0.0515 | 0.0683 | 0.05 | 0.0581 |  | 0.0777 | 0.0676 |  | 0.0521 | 0.0639 |  | 0.0458
W144E | 0.0676 | 0.0662 |  | 0.0636 |  | 0.0547 | 0.0534 | 0.0582 | 0.0723 | 0.0699 | 0.0464 | 0.0693 | 0.0668 |  |  | 0.0621 | 0.0609 | 0.0596 | 0.0615
G150M | 0.0601 |  |  |  | 0.0722 |  |  | 0.0633 | 0.0623 | 0.0583 | 0.0561 | 0.0531 | 0.0596 | 0.0525 |  |  |  | 0.0732 | 
G150S | 0.056 | 0.0479 | 0.0466 | 0.0578 | 0.0722 |  |  | 0.0557 | 0.0603 | 0.0745 |  | 0.0604 | 0.0576 | 0.0601 | 0.0507 |  | 0.0672 | 0.0699 | 
I145S | 0.0652 | 0.0667 |  |  |  | 0.0468 | 0.0652 | 0.061 |  | 0.0663 | 0.0588 | 0.0592 | 0.0203 |  | 0.0592 |  | 0.0468 | 0.0632 | 0.0467
Q105V | 0.0677 | 0.0485 |  | 0.0873 | 0.0724 |  |  | 0.0531 | 0.0576 |  | 0.0578 | 0.0677 | 0.0604 |  |  | 0.0617 | 0.0624 | 0.0391 | 0.0587
